The subject of the series is ATP. The experiment in a line: switch fluorescence ratio, 500 uM ATP over buffer (Cy3 cluster intensity, sum of 5 cycles each) (fold (ratio)); higher = stronger signal-on switching upon ATP binding; sequences stand for … in TCGTCGGCAGCGTCAGATGTGTATAAGAGACAGTTTTTTTTTTTTTTTTTTTTTTTTT…TC. Conditions: aptamer strand: ATP DNA aptamer (quencher-CACCTGGGGGAGTATTGCGGAGGAAGG + anchor), 100 nM annealed; ATP concentration: 500 uM; one replicate. Summed up: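 Per cluster, summed Cy3 intensity from the target cycles was divided by that from the buffer cycles to give the fluorescence ratio, then averaged per switch-domain sequence. Clusters outside 100-1000 RFU were excluded. The Cy3-labelled switching-strand clusters, on a modified Illumina MiSeq flow-cell, were annealed to 100 nM quencher-labelled ATP aptamer and imaged in selection buffer, then after 15 min with 500 uM ATP at 22 °C, for five cycles with NaOH stripping and re-annealing between them.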

Sequences with one replicate were seen in a single cluster, so their values are uncertain.
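Note: ATP exposure 15 min at 22 °C before imaging.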

CTGGATACTG: the switch fluorescence ratio is 1.08.
To TTTAACATGA belongs 1.03; to AGTTACCCCG, 1.04.
In the case of GAGTCTGTTA, the switch fluorescence ratio came out at 1.03.
On to ACTAGGTCTG, for which the switch fluorescence ratio was 1.
As to CTTGAATGT, the switch fluorescence ratio turned out to be 0.966.
To TATACTTTGA belongs 1.01.
Then CATTCCCTTG, with 1.02; and GCGTCGCTGT, with 1.04.
Then CATCGAGACA, with 1.02.
In the case of GCAATAATAT, the switch fluorescence ratio came out at 1.1.
For the sequence TGGAGGTGGA, the switch fluorescence ratio amounted to 1.03.
Then GTGTGCCCGT, with 1.03; and TAAATATGCC, with 1.06.
Then AGGTGTTGCC, with 1.02; and TTCGTGAGTA, with 1.01.
To AAGGTTCGTA belongs 0.979.
Take AGAGGAGTAC: the switch fluorescence ratio came out at 0.982.
Then TTTAACCTTG, with 1.04; and TAACCCATGG, with 1.01; and GGATGCGCCG, with 0.93.
To CGAGGGATAT belongs 1.12; to ACGTAATCTC, 1.83; to CAATGGGCCT, 0.984.
As for AGAGATTTAG, the switch fluorescence ratio is 1.02.
To ATACGGCGT belongs 0.995.
For the sequence TAGGACCGTA, the switch fluorescence ratio was 1.02.
Then GACATCGTTG, with 1.
ATGTCGGAGA: the switch fluorescence ratio came out at 1.01.
Then TTGTGTGTCT, with 0.966.
Consider ACTGGCGGCC, for which the switch fluorescence ratio was 0.962.
Regarding TCTTAAGCTG, the switch fluorescence ratio was 1.06.
Then CCAAACCACA, with 1.08; and CTTCTTACCA, with 1.02.
To GGATATTTTC belongs 0.986.
Then CAATTTAACG, with 0.964; and ACCGGGAGAC, with 1.75.
On to ATGATCACGC, for which the switch fluorescence ratio was 1.08.
As for GTTGTTCGTT, the switch fluorescence ratio stood at 1.04.
To AGCCGCGTCG belongs 1.01; to CGATAGAGAA, 1.01.
With ATAATATTAG, the switch fluorescence ratio turned out to be 0.981.
To AACGGTTCGT belongs 1; to TAGGAACGAA, 1.01.
Then TAATCGCCTT, with 1.01.
As to GGGGACCTGT, the switch fluorescence ratio stood at 0.945.
Then ATTAGTGGTA, with 1.01; and AAGTACAGTA, with 1.18.
To ATAGAATTTG belongs 1; to ATAAGGCTA, 0.981.
For TTCCCCTGT, the switch fluorescence ratio was determined as 1.02.
As for GGGGCTACAG, the switch fluorescence ratio worked out at 1.03.
Then CACTGATATT, with 1.1; and TGCTACATTT, with 1.03; and TTCTTACGTA, with 1.02.
With GATAGGATGA, the switch fluorescence ratio came to 0.974.
To ACAATCTCGA belongs 0.98; to ATGTTACTCC, 1.21.
Then TGCGCGATAT, with 3.75.
To TTCCAACTCG belongs 1.02; to AAGCGATTAG, 1.03; to GTTCGTTCGT, 1.01.
Take CACGCTTGTC: the switch fluorescence ratio was 1.08.
To CCATGAATGC belongs 1.53; to GAGGTACGTG, 1.02.
Then GAATTAACTC, with 0.962; and CCTTTCCCGT, with 1.93.

Source of the values: the supplement of paper PMC10126150.
